Results published in PubChem BioAssay AID488969 (Vanderbilt High Throughput Screening Facility, 2010).
Over roughly 110,000 compounds, “z-score” has its median near -0.1; the highest 2% begin near 2. Some of the results follow. Active and inactive are the calls of the source.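 The calls were made as follows: active = z-score in the third read window above 3 or below -3; inactive = the rest.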

molecular target: Metabotropic glutamate receptor 8 (Rattus norvegicus) (UniProt P70579); assay: rat mGluR8 modulators via GIRK flux, primary screen, cell-based, thallium flux, HTS (AID 488969); details: HEK293 rat mGluR8, GIRK (G protein-gated inwardly rectifying potassium channel) thallium flux, FluoZin2; at 10 µM; stronger effect = higher value; submaximal glutamate (EC20) added with thallium
Sequence of UniProt P70579 (P70579 whole entry, looked up): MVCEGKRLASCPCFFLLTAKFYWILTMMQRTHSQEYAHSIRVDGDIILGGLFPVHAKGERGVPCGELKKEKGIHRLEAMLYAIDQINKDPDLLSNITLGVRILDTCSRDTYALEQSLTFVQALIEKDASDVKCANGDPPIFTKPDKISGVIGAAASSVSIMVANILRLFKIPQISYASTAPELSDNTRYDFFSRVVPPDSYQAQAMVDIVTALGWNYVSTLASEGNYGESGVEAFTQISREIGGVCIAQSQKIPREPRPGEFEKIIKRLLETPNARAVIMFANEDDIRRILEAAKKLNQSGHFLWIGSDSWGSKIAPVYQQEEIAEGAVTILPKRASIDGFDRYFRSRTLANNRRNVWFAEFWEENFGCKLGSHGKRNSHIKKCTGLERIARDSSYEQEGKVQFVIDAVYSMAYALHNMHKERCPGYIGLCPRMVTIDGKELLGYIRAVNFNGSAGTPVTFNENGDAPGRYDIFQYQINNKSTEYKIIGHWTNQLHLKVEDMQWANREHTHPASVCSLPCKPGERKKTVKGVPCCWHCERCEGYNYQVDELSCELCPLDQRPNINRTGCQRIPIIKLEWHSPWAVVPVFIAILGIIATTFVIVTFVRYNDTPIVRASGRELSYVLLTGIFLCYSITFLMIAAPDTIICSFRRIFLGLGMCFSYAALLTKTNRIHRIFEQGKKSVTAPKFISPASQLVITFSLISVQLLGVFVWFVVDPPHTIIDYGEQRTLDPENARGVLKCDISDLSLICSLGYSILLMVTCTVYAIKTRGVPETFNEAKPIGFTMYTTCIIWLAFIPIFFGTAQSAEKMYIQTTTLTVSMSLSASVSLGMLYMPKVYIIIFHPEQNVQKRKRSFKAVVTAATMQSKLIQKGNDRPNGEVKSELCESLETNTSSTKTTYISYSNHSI

Row | Structure (SMILES) | z-score
1 | COc1ccc(-c2c(C)oc3ccc(C)cc23)cc1 | -0.0455
2 | Cc1ccc(CC(=O)N2CCN(c3ccccn3)CC2)cc1 | 0.0296
3 | Nc1nc(CN2CCc3ccccc3C2)nc(Nc2ccccc2)n1 | -0.327
4 | Cc1cc(C(=O)NCCN2CCCCC2C)n(-c2ccccc2)n1 (stereo not given) | -0.438
5 | CC1C(=NO)C(C)C(c2ccccc2)NC1c1ccccc1 (stereo not given) | -0.0154
6 | COc1ccc(-c2nc3ccccc3n2Cc2ccc(C)cc2)cc1 | -0.405
7 | CCOC(=O)N/N=C/c1ccc(C)o1 | -0.228
8 | Cn1c(=O)[nH]c(=O)c2c1nc1n2CCN1Cc1ccccc1 | -0.0704
9 | CCOc1cc(C2c3c(oc4cc(C)c(Cl)cc4c3=O)C(=O)N2Cc2ccco2)ccc1O (stereo not given) | -0.525
10 | CCCCCn1c(N)c(-c2nc3ccccc3o2)c2c([N+](=O)[O-])nn(C)c(=O)c21 | 0.0272
11 | c1ccc(-c2noc(-c3ccco3)n2)nc1 | -0.129
12 | CCOC(=O)c1c(C)c(C(=O)NCc2ccco2)c(C)n1Cc1ccccc1 | -0.988
13 | Cc1cc(-n2nc(C)cc2C)nc(NS(=O)(=O)c2ccccc2Cl)n1 | 1.39
14 | Cc1ccc(C)c(NC(=O)CSc2nnc(-c3ccccc3)o2)c1 | -0.153
15 | O=C1NC(Cc2c[nH]c3ccccc23)C(=O)N1CCOc1ccccc1 (stereo not given) | -0.0736
16 | C/C=C/c1ccc(OCCOc2ccc(C=O)cc2OC)c(OC)c1 | -0.0507
17 | CCOc1ccc(NC(=O)C(c2ccccn2)N(C(=O)CCl)c2ccc(OC)cc2)cc1 (stereo not given) | 0.0198
18 | CNC(=O)COC(=O)c1ccc([N+](=O)[O-])cc1Cl | -0.213
19 | O=C(CCC1COc2ccccc2O1)NCC1COc2ccccc2O1 (stereo not given) | 0.357
20 | CCOc1cc(C(=O)NCCCn2ccnc2)cc(OCC)c1OCC | -0.00695
21 | CC(C)NC(=O)COC(=O)c1ccc(NS(=O)(=O)c2ccc3c(c2)OCCO3)cc1 | -0.352
22 | CCOc1cc(/C=N/NC(=O)CSc2nncn2C)ccc1OCc1cccc(C)c1 | 0.0457
23 | Cc1cc(-n2c(C)cc(C(=O)CSc3nc4ccccc4c(=O)n3Cc3ccco3)c2C)no1 | -0.119
24 | CCOc1ccccc1NC(=O)C(OC(=O)c1ccccc1NS(=O)(=O)c1cccs1)c1ccccc1 (stereo not given) | -0.417
25 | CCC1(C)Cc2c(sc3nc(SC)nc(NCCN(C)C)c23)CO1 (stereo not given) | 0.0651
26 | O=C(Nc1ccc(Cl)c(Cl)c1)c1ccc(Cn2cc(Cl)cn2)cc1 | -0.0902
27 | Cn1nccc1C(=O)Nc1ccn(C23CC4CC(CC(C4)C2)C3)n1 | -0.275
28 | Cc1ccc(N=Cc2cc(C)n(C3CCCC3)c2C)cc1 | 0.457

Row | Structure (SMILES) | z-score
29 | Cc1cc(O)c(C(=O)c2ccccc2C(=O)O)cc1C | 0.613
30 | Cc1[nH]c(=O)[nH]c(=O)c1S(=O)(=O)N1CCCC(C(=O)NCc2ccco2)C1 (stereo not given) | -0.108
31 | COc1ccc(S(=O)(=O)N2CCN(C(=O)c3c(-c4ccccc4)noc3C)CC2)cc1 | 0.298
32 | Cc1[nH]n(-c2ccccc2)c(=O)c1C1(C(F)(F)F)C(=O)N(c2ccccc2)C2=C1C(=O)CC(C)(C)C2 (stereo not given) | 0.785
33 | O=S(=O)(Nc1ccc(Cc2ccncc2)cc1)N1CCCC1 | 0.663
34 | COc1ccc(N=C2S/C(=C\c3cc(C)n(C)c3C)C(=O)N2C)cc1 | 0.0241
35 | O=c1nc2ccccc2c(NS(=O)(=O)c2ccccc2)n1-c1ccccc1 | -0.176
36 | N#C/C(=C/c1ccc(N2CCCCC2)o1)c1cccc(F)c1 | 0.0995
37 | CN(CC(=O)NC(c1ccccc1)c1ccccc1)Cc1nc2ccccc2c(=O)[nH]1 | -0.265
38 | S=C(c1ccc(N2CCOCC2)cc1)N1CCOCC1 | 0.0674
39 | Cc1ccc(C2CC(c3cccc(Br)c3)Nc3nnnn32)cc1 (stereo not given) | 0.52
40 | O=C(O)c1cc(S(=O)(=O)Nc2ccc3oc(=O)sc3c2)ccc1O | 1
41 | CCOc1ccc(/C=N/NC(=O)COc2ccccc2-c2ccccc2)cc1 | 0.17
42 | COc1cccc(NC(=O)COC(=O)CCCc2c[nH]c3ccccc23)c1 | 0.138
43 | CCc1ccc(C2=Nn3c(nnc3-c3cccs3)SC2)cc1 | 0.381
44 | CC(=O)Nc1ccccc1OCc1nnc(-c2cccs2)o1 | -0.261
45 | CCN(CC)C(=S)SCC(=O)Nc1nc(=O)c2ccccc2s1 | active: 5.2
46 | CCOC(=O)c1cnn(-c2ccccc2)c1NC(=O)C(F)(F)C(F)(F)C(F)(F)F | 0.0228
47 | CC(=O)c1ccc(-n2nnnc2SCC(=O)N2CCN(C(=O)c3ccco3)CC2)cc1 | 0.0827
48 | COc1cc(OC)cc(C(=O)N(Cc2nc(-c3cccc(C)c3)no2)C(C)C)c1 | 0.789
49 | COc1ccc(N2C(=O)C3CCCN3C2c2ccccc2)cc1 (stereo not given) | -0.198
50 | CC12CCC(C(=O)N(Cc3ccccc3)Cc3ccccc3)(OC1=O)C2(C)C (stereo not given) | -0.0292
51 | COC1CCCCC1NS(=O)(=O)c1ccc(Cl)cc1 (stereo not given) | -0.0246
52 | C=CCc1cccc(CNc2nc3ccccc3n2CC)c1O | 0.0464
53 | CCc1nc2ccc(C(=O)Nc3ccc(NC(C)=O)cc3)cc2nc1CC | -0.168
54 | CC#CCCC(=O)N1C=Cc2ccccc2C1C#N (stereo not given) | 1.61
55 | COc1cccc(NC(=S)N(CCc2nc3cc(C)c(C)cc3[nH]2)Cc2cccnc2)c1 | 1.13
